The list shows a part of the results.
What was measured:
Experiment in all cases: glycan array binding signal (z-score within array); higher = stronger binding
Settings in all cases: glycan notation: IUPAC condensed, linker removed
[1] = target: Gal(b1-4)GlcNAc(b1-3)Gal(b1-4)GlcNAc(b1-6)[Gal(b1-3)]GalNAc
Outline: (§1)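 Glycan array binding is given as a within-array Z-score, which can be read as non-binding when negative. The arrays, 3228 of them, came from the Consortium for Functional Glycomics database and were retained only where the protein sequence was available. Z-scores were averaged across arrays of the same protein sequence at different concentrations or buffers and across linkers.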

[2] = target: Gal(b1-4)GlcNAc(b1-3)Gal(b1-4)[Fuc(a1-3)]GlcNAc(b1-3)Gal(b1-4)[Fuc(a1-3)]GlcNAc
Outline: as §1

[3] = target: Gal(b1-4)GlcNAc(b1-3)GalNAc
Outline: as §1

[4] = target: Gal(b1-4)GlcNAc(b1-3)[Fuc(a1-3)GlcNAc(b1-6)]Gal(b1-4)Glc
Outline: as §1

[5] = target: Gal(b1-4)GlcNAc(b1-3)[Gal(b1-4)GlcNAc(b1-6)]Gal(b1-4)GlcNAc
Outline: as §1

[6] = target: Gal(b1-4)GlcNAc(b1-3)[GlcNAc(b1-6)]Gal(b1-4)GlcNAc
Outline: as §1

[7] = target: Gal(b1-4)GlcNAc(b1-6)Gal(b1-4)GlcNAc
Outline: as §1

[8] = target: Gal(b1-4)GlcNAc(b1-6)GalNAc
Outline: as §1

[9] = target: Gal(b1-4)GlcNAc(b1-6)[Gal(b1-3)]GalNAc
Outline: as §1

[10] = target: Gal(b1-4)GlcNAc(b1-6)[Gal(b1-4)GlcNAc(b1-3)]GalNAc
Outline: as §1

[11] = target: Gal(b1-4)GlcNAc6P
Outline: as §1

[12] = target: Gal(b1-6)Gal
Outline: as §1

[13] = target: Gal3S(b1-3)GalNAc
Outline: as §1

[14] = target: Gal3S(b1-3)GlcNAc
Outline: as §1

[15] = target: Gal3S(b1-3)[Fuc(a1-4)]GlcNAc
Outline: as §1

[16] = target: Gal3S(b1-4)Glc
Outline: as §1

[17] = target: Gal3S(b1-4)Glc6S
Outline: as §1

[18] = target: Gal3S(b1-4)GlcNAc
Outline: as §1

[19] = target: Gal3S(b1-4)[Fuc(a1-3)]Glc6S
Outline: as §1

[20] = target: Gal3S(b1-4)[Fuc(a1-3)]GlcNAc
Outline: as §1

[21] = target: Gal3S(b1-4)[Fuc(a1-3)]GlcNAc6S
Outline: as §1

[22] = target: Gal3S4S(b1-4)GlcNAc
Outline: as §1

[23] = target: Gal3S6S(b1-4)GlcNAc
Outline: as §1

[24] = target: Gal3S6S(b1-4)GlcNAc6S
Outline: as §1

[25] = target: Gal4S(b1-4)GlcNAc
Outline: as §1

[26] = target: Gal4S6S(b1-4)GlcNAc
Outline: as §1

[27] = target: Gal6P(b1-4)GlcNAc
Outline: as §1

[28] = target: Gal6S(b1-3)GlcNAc
Outline: as §1

[29] = target: Gal6S(b1-3)GlcNAc6S
Outline: as §1

[30] = target: Gal6S(b1-4)Glc
Outline: as §1

[31] = target: Gal6S(b1-4)Glc6S
Outline: as §1

[32] = target: Gal6S(b1-4)GlcNAc
Outline: as §1

[33] = target: Gal6S(b1-4)GlcNAc6S
Outline: as §1

[34] = target: GalNAc(a1-3)Gal
Outline: as §1

[35] = target: GalNAc(a1-3)GalNAc
Outline: as §1

[36] = target: GalNAc(a1-3)GalNAc(b1-3)Gal(a1-4)Gal(b1-4)Glc
Outline: as §1

[37] = target: GalNAc(a1-3)GalNAc(b1-3)Gal(a1-4)Gal(b1-4)GlcNAc
Outline: as §1

[38] = target: GalNAc(b1-3)Gal
Outline: as §1

[39] = target: GalNAc(b1-3)Gal(a1-4)Gal(b1-4)GlcNAc
Outline: as §1

[40] = target: GalNAc(b1-3)Gal(a1-4)Gal(b1-4)GlcNAc(b1-3)Gal(b1-4)Glc
Outline: as §1

[41] = target: GalNAc(b1-3)Gal(a1-6)Gal(b1-4)Glc
Outline: as §1

[42] = target: GalNAc(b1-3)GalNAc
Outline: as §1

[43] = target: GalNAc(b1-3)GlcNAc
Outline: as §1

[44] = target: GalNAc(b1-4)Gal(b1-4)Glc
Outline: as §1

[45] = target: GalNAc(b1-4)GlcNAc
Outline: as §1

B1: PLU (Photorhabdus luminiscence) (protein)
chain: HHHHHHENLYFQSSIVFASIDPRSNPLQTSSQNYVDIPGLKLDVSKYSNSPCLTALITLNIPTPYASGNNFPGGNFAIVTDQGEQLAYGGFTYSSKIPENSGRMPFTLVARYSLASNVSTIKAQWSNIRGSTVHIDSYASISAVIQCNQLV
glycan array binding signal (z-score) [1]: -0.24 | glycan array binding signal (z-score) [2]: -0.262 | glycan array binding signal (z-score) [3]: -0.254 | glycan array binding signal (z-score) [4]: -0.227 | glycan array binding signal (z-score) [5]: -0.268 | glycan array binding signal (z-score) [6]: -0.329 | glycan array binding signal (z-score) [7]: -0.221 | glycan array binding signal (z-score) [8]: -0.243 | glycan array binding signal (z-score) [9]: -0.284 | glycan array binding signal (z-score) [10]: -0.197 | glycan array binding signal (z-score) [11]: -0.27 | glycan array binding signal (z-score) [12]: -0.313 | glycan array binding signal (z-score) [13]: -0.22 | glycan array binding signal (z-score) [14]: -0.305 | glycan array binding signal (z-score) [15]: -0.26 | glycan array binding signal (z-score) [16]: -0.316 | glycan array binding signal (z-score) [17]: -0.352 | glycan array binding signal (z-score) [18]: -0.221 | glycan array binding signal (z-score) [19]: -0.317 | glycan array binding signal (z-score) [20]: -0.272 | glycan array binding signal (z-score) [21]: -0.233 | glycan array binding signal (z-score) [22]: -0.346 | glycan array binding signal (z-score) [23]: -0.276 | glycan array binding signal (z-score) [24]: -0.195 | glycan array binding signal (z-score) [25]: -0.274 | glycan array binding signal (z-score) [26]: -0.277 | glycan array binding signal (z-score) [27]: -0.374 | glycan array binding signal (z-score) [28]: -0.249 | glycan array binding signal (z-score) [29]: -0.322 | glycan array binding signal (z-score) [30]: -0.291 | glycan array binding signal (z-score) [31]: -0.284 | glycan array binding signal (z-score) [32]: -0.224 | glycan array binding signal (z-score) [33]: -0.355 | glycan array binding signal (z-score) [34]: -0.351 | glycan array binding signal (z-score) [35]: -0.149 | glycan array binding signal (z-score) [36]: -0.313 | glycan array binding signal (z-score) [37]: -0.271 | glycan array binding signal (z-score) [38]: -0.24 | glycan array binding signal (z-score) [39]: -0.301 | glycan array binding signal (z-score) [40]: -0.246 | glycan array binding signal (z-score) [41]: -0.329 | glycan array binding signal (z-score) [42]: -0.244 | glycan array binding signal (z-score) [43]: -0.382 | glycan array binding signal (z-score) [44]: -0.36 | glycan array binding signal (z-score) [45]: -0.287

Source: the supplement of paper PMC8728848
